# Data published in the supplement of paper PMC12217912.
# The list shows a part of the results. Sequences were assembled here from the parent chain. Inactive controls read about 0.05.
# B1: TEV protease; numbered along this chain (parent)
# chain: MGESLFKGPRDYNPISSSICHLTNESDGHTTSLYGIGFGPFIITNKHLFRRNNGTLVVQSLHGVFKVKDTTTLQQHLVDGRDMIIIRMPKDFPPFPQKLKFREPQREERICLVTTNFQTKSMSSMVSDTSCTFPSGDGIFWKHWIQTKDGQCGSPLVSTRDGFIVGIHSASNFTNTNNYFTSVPKNFMELLTNQEAQQWVSGWRLNADSVLWGGHKVFMVKPEEPFQPVKEATQL
# Variants of: B1
# Test: raw area under fraction-flipped curve 0-4 h after induction (AUC4h, not background-subtracted), DNA-recorder readout of cleavage of the substrate (dimensionless); higher = more cleavage of the substrate by the protease variant
# Details: temperature: 34 °C; time window: 0-4 h after rhamnose induction
# 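Also: Bxb1 expression induced with 0.2% (w/v) L-rhamnose at OD600 near 0.5, cultures sampled hourly, flipped fraction per protease–substrate barcode pair counted by paired-end Illumina sequencing.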
Variant,area with substrate DNLYFQS,area with substrate INLYFQS,area with substrate KNLYFQS,area with substrate LNLYFQS,area with substrate TNLYFQS,area with substrate YNLYFQS,area with substrate FNLYFQS,area with substrate GNLYFQS,area with substrate HNLYFQS,area with substrate MNLYFQS,area with substrate VNLYFQS,area with substrate WNLYFQS,area with substrate CNLYFQS,area with substrate NNLYFQS,area with substrate PNLYFQS,area with substrate QNLYFQS,area with substrate SNLYFQS,area with substrate RNLYFQS
V64Y,0.101,0.0753,0.0739,0.067,0.0517,0.071,,,,,,,,,,,,
L56A,0.0612,0.0531,0.0632,,,,0.0621,0.0776,0.0603,0.0605,0.0584,0.0475,,,,,,
R204I,0.0689,0.0651,0.0695,0.0714,0.0602,0.0599,0.0735,0.0602,0.0603,0.0728,0.069,0.0576,0.0655,0.0587,0.0641,0.0498,0.0678,
V200Y,0.044,,,0.0614,0.0572,0.0587,,0.0627,0.0675,,,0.0829,0.0737,0.0674,,,0.0643,
V200F,,0.0565,,,0.0535,0.0729,,,0.0528,,,,0.0575,0.0723,,0.0987,0.0598,0.0671
V200C,0.0555,0.0504,,0.0501,,,0.0631,0.0276,0.0603,0.0686,0.0468,0.057,0.0682,0.0527,0.0608,0.06,0.0593,
A232R,0.0772,0.0715,,,0.0684,0.0613,0.0656,0.088,0.0659,0.074,,0.0617,0.0504,0.0686,0.0728,0.068,,0.0623
A232Q,,,0.0619,0.0585,,,,,0.0674,0.0579,0.0655,0.0663,0.0751,,,0.0456,0.0595,
A232E,,0.0566,0.105,,,0.0632,,0.0571,0.0623,,0.076,0.061,0.0674,,0.0832,0.0601,0.0543,
T174R,0.0554,0.0649,0.0762,0.0535,0.0577,0.0573,0.0517,0.0471,,0.0696,0.0636,0.0569,0.084,0.071,0.0628,0.0577,0.0574,
L48T,0.0634,0.0597,0.0639,,0.0633,0.0551,0.044,0.0596,0.0598,0.0714,0.0396,0.0543,,,0.0719,,0.0538,
L48Y,0.0546,,0.0661,,0.0572,0.0529,,,0.0407,0.0705,,0.0585,,0.0549,,,0.0672,0.0571
E223L,0.0681,0.0661,0.0569,,0.0601,0.0574,0.064,0.0864,0.0554,0.0364,,0.0674,0.0724,,0.0544,,0.0667,0.0434
E224Q,0.0737,0.0616,0.0717,0.0683,0.0453,0.0605,0.0727,,0.0659,,0.061,0.0608,0.064,0.0689,0.0766,,0.0715,
E224I,0.0781,0.0544,0.0584,0.0747,0.0497,0.0664,,0.0704,0.0506,0.0859,0.058,,0.0573,0.0519,0.0761,,,
E224L,,0.075,,0.06,0.0372,,,0.075,0.078,0.0554,,0.0689,0.0702,,0.0574,,0.0632,0.0784
V220Q,0.0867,0.0658,0.0852,0.0696,0.0609,0.0672,,0.0767,0.0615,0.0765,0.0751,0.0671,0.101,,0.0717,0.0731,0.0892,0.079
D208H,0.0709,,0.0656,,,,,,,0.0667,,0.0551,0.0551,,,,0.0663,
D208I,0.0602,,0.0589,0.0526,0.0592,0.0549,0.0632,0.0586,0.0606,,,0.0545,0.03,0.0578,0.0612,0.0717,,0.0575
D208T,,,0.0684,0.0584,0.0778,0.0665,0.0726,,0.0588,,,0.0553,0.0613,0.0581,0.0642,,,0.0571
D208L,,0.054,,0.0615,0.0673,,,,,,0.0616,0.0641,0.0622,,,0.0634,,
D208R,,,0.0632,0.0479,0.054,0.0518,,,0.0475,0.0551,,0.0544,0.0603,0.0594,0.0557,0.0647,,
D208C,,0.0605,0.0614,0.0531,0.0635,0.0556,,0.0582,0.0521,0.0392,,0.0598,0.0638,,0.0674,,0.0683,
D208M,,0.09,0.0648,0.0656,0.075,0.0606,0.0518,0.0632,0.0463,,0.0663,0.0597,0.0612,0.064,0.0686,0.0553,0.0609,0.0638
D208Y,,0.0732,0.0583,0.0488,0.0568,0.0409,0.0625,0.0539,0.0625,0.0575,0.0587,0.0659,0.0658,,0.0578,,0.0654,
D208W,0.0528,0.0514,0.0704,0.052,0.0614,,,0.0693,0.0527,0.0545,0.0551,0.0582,0.0607,,0.0846,,,0.0538
D208F,,0.0542,,0.0567,0.0629,,,,0.0711,,,0.0593,0.0662,,0.0559,,0.0512,
W199G,0.0547,0.0476,0.0743,0.0464,0.062,0.0484,0.0523,0.0575,0.0671,0.0815,,0.0649,0.0536,0.0712,0.0622,,0.0638,0.0667
M88R,0.0531,0.0409,,0.0488,0.043,,0.0498,0.0454,,0.05,,0.0462,,,,,,
